Measurements published in PMC2650728.
These are yes or no findings as the source states them, for the method shown. Binding seen in cells or lysates may run through a third protein. Some binding calls cover weakened binding; strength is not graded here. Sequences can lack the tags named with a protein.

T1: Stt7 containing a haemagglutinin (HA)-tag at its C-terminal end (Stt7-HA) (Chlamydomonas reinhardtii) (UniProt Q84V18)
T1 sequence: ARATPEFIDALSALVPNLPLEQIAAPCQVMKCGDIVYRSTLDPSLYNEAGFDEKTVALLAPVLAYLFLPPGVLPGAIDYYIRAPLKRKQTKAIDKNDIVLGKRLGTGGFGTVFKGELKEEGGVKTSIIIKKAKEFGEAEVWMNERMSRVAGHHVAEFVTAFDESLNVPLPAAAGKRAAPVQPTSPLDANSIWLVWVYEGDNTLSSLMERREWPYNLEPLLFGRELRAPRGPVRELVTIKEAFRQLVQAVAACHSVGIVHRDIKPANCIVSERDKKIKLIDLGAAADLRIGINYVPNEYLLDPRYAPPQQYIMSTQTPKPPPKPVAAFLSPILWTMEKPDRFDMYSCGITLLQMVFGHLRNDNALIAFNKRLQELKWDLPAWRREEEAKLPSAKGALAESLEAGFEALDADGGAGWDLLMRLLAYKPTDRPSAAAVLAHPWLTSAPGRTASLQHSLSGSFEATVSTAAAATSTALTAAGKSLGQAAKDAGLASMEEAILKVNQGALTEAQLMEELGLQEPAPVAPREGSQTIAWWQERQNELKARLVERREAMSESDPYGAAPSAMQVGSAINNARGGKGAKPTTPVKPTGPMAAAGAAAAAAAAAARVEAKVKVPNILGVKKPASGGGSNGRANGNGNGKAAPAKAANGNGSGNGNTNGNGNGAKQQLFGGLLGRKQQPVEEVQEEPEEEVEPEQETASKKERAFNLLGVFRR

T2: Stt7-HA-C68S (Chlamydomonas reinhardtii) (UniProt Q84V18)
T2 sequence: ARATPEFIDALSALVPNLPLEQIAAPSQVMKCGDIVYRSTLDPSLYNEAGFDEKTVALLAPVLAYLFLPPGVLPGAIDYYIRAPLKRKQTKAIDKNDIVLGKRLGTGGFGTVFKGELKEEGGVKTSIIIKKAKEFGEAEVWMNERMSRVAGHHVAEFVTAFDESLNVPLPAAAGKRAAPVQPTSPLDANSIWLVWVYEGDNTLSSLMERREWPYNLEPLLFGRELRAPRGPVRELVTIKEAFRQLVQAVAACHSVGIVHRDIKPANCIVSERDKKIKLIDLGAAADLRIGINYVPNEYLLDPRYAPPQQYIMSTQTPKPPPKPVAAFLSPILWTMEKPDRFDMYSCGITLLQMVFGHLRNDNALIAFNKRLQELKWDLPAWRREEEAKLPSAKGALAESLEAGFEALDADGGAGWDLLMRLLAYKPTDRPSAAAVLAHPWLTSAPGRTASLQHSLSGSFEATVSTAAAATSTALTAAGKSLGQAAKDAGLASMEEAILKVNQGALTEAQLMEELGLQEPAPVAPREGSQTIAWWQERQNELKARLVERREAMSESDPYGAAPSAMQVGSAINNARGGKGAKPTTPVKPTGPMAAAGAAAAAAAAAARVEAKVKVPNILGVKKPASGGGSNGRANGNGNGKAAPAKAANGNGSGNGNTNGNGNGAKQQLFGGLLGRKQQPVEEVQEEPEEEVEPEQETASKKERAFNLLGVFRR


How the values were obtained:
[1] = target: T1, Stt7 containing a haemagglutinin (HA)-tag at its C-terminal end (Stt7-HA) (Chlamydomonas reinhardtii); assay: co-IP; as a1, thylakoid membranes from Stt7-HA cells in state 1 only, precipitated with HA antiserum
[2] = target: T1, Stt7 containing a haemagglutinin (HA)-tag at its C-terminal end (Stt7-HA) (Chlamydomonas reinhardtii); assay: co-IP; thylakoid membranes (0.8 mg/ml) solubilized with n-dodecyl-β-maltoside, anti-HA-affinity matrix overnight at 4 °C, five washes in TBS-BSA (100 mM Tris/HCl pH 7.5, 150 mM NaCl, 0.05% BSA), immunoblot of the precipitate; Figure 3A with cells in state 1 or state 2, Figure 6C state not told
[3] = target: T2, Stt7-HA-C68S (Chlamydomonas reinhardtii); assay: as above
[4] = substrate: PSI subunit PsaA (Chlamydomonas reinhardtii (endogenous)) (UniProt P12154); assay: co-IP; reciprocal: solubilized thylakoid membranes from the Stt7-HA strain precipitated with antibodies against the thylakoid proteins, immunoblotted with HA antibodies

Row | Molecule | binding [2] | binding [3] | other results
1 | CP29 (from UniProt Q93WD2 1-280) | binds |  | binding [1]: no binding (condition: cells in state 1)
2 | cytochrome f (from UniProt P23577 32-317) |  | binds | 
3 | Stt7 containing a haemagglutinin (HA)-tag at its C-terminal end (Stt7-HA) (enzyme, UniProt Q84V18 42-754) ARATPEFIDALSALVPNLPLEQIAAPCQVMKCGDIVYRSTLDPSLYNEAGFDEKTVALLAPVLAYLFLPPGVLPGAIDYYIRAPLKRKQTKAIDKNDIVLGKRLGTGGFGTVFKGELKEEGGVKTSIIIKKAKEFGEAEVWMNERMSRVAGHHVAEFVTAFDESLNVPLPAAAGKRAAPVQPTSPLDANSIWLVWVYEGDNTLSSLMERREWPYNLEPLLFGRELRAPRGPVRELVTIKEAFRQLVQAVAACHSVGIVHRDIKPANCIVSERDKKIKLIDLGAAADLRIGINYVPNEYLLDPRYAPPQQYIMSTQTPKPPPKPVAAFLSPILWTMEKPDRFDMYSCGITLLQMVFGHLRNDNALIAFNKRLQELKWDLPAWRREEEAKLPSAKGALAESLEAGFEALDADGGAGWDLLMRLLAYKPTDRPSAAAVLAHPWLTSAPGRTASLQHSLSGSFEATVSTAAAATSTALTAAGKSLGQAAKDAGLASMEEAILKVNQGALTEAQLMEELGLQEPAPVAPREGSQTIAWWQERQNELKARLVERREAMSESDPYGAAPSAMQVGSAINNARGGKGAKPTTPVKPTGPMAAAGAAAAAAAAAARVEAKVKVPNILGVKKPASGGGSNGRANGNGNGKAAPAKAANGNGSGNGNTNGNGNGAKQQLFGGLLGRKQQPVEEVQEEPEEEVEPEQETASKKERAFNLLGVFRR |  |  | binding [4]: binds

Now from value to molecule, other results behind:

Row | binding [2] | binding [3] | Molecule | other results
4 | binds |  | PSI subunit PsaA (from UniProt P12154 1-751) | 
5 | no binding |  | subunit α of ATP synthase (from UniProt P26526 1-508) | 
6 |  | binds | Rieske protein (protein, UniProt P49728 30-206) AAASSEVPDMNKRNIMNLILAGGAGLPITTLALGYGAFFVPPSSGGGGGGQAAKDALGNDIKAGEWLKTHLAGDRSLSQGLKGDPTYLIVTADSTIEKYGLNAVCTHLGCVVPWVAAENKFKCPCHGSQYNAEGKVVRGPAPLSLALAHCDVAESGLVTFSTWTETDFRTGLEPWWA | 
